Experimental data from the supplement of paper PMC10126150.
Sequences with one replicate were seen in a single cluster, so their values are uncertain.

Test system: ATP
Experiment: switch fluorescence ratio, 500 uM ATP over buffer (Cy3 cluster intensity, sum of 5 cycles each) (fold (ratio)); higher = stronger signal-on switching upon ATP binding; sequences stand for … in TCGTCGGCAGCGTCAGATGTGTATAAGAGACAGTTTTTTTTTTTTTTTTTTTTTTTTT…TC
Details: aptamer strand: ATP DNA aptamer (quencher-CACCTGGGGGAGTATTGCGGAGGAAGG + anchor), 100 nM annealed; ATP concentration: 500 uM; one replicate
Outline: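 Values give the fluorescence ratio for each switch-domain sequence, averaged from per-cluster ratios of summed target-cycle to summed buffer-cycle Cy3 intensity. The Cy3-labelled switching-strand clusters sat on a modified Illumina MiSeq flow-cell, were annealed to 100 nM quencher-labelled ATP aptamer, and were imaged in selection buffer, then after 15 min with 500 uM ATP at 22 °C. Five cycles ran with NaOH stripping and re-annealing between them, and clusters outside 100-1000 RFU were excluded.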
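Note: ATP exposure 15 min at 22 °C before imaging.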

| Sequence | switch fluorescence ratio |
| --- | --- |
| GCGGTCTCTC | 1.02 |
| GATCACACGC | 1.12 |
| CCCGGCGGGT | 1 |
| GTTCTATATG | 0.96 |
| AGGTTATCGC | 1 |
| TGTATTTGGT | 0.946 |
| TTGGCTGTGA | 1.03 |
| AGCTCTGTGG | 0.944 |
| AAGCCGCCGG | 1.01 |
| TTGGCGTACT | 1.04 |
| TCGGCGTGGC | 1.02 |
| GGTATACCTT | 1.04 |
| TGTGGCTGGA | 1.04 |
| CCAGGGTGG | 1.05 |
| CTGTGCAGCA | 1.06 |
| TTCCGAGATT | 0.95 |
| GTGAATGTTT | 0.985 |
| ATAAGTTGTC | 1.01 |
| ACGTCGCTAT | 1.47 |
| GTACCCCCTC | 1.04 |
| CGGACGCTCC | 3.41 |
| ATGGTAGGAA | 0.974 |

| Sequence | switch fluorescence ratio |
| --- | --- |
| TCAGGAGGAT | 0.968 |
| TTCGGAGCAA | 1.61 |
| CAGCTCAACT | 1.03 |
| GCTTGCGGCT | 0.968 |
| TAATGCATCC | 1.06 |
| ATGGTATGTA | 1 |
| ACTCTGTCAT | 1.46 |
| CGTTGTCTTT | 1.07 |
| TTGCCGTACA | 0.992 |
| AAGGCCACGA | 1.01 |
| TTAATACCCC | 1.14 |
| TAACTAGGTG | 1.51 |
| AGGGCTGAGA | 0.963 |
| GACGTGAGCT | 1.09 |
| GACGGAAGCC | 1.83 |
| TGGGGCCTTG | 1 |
| CTGTGCGCAG | 1.14 |
| CGATTAGTAT | 0.98 |
| AAGTGCTTTA | 1.02 |
| TGGGCGCAAT | 1.64 |
| CGAGTAGTAC | 1.29 |
| GGCTACGATC | 1.04 |

| Sequence | switch fluorescence ratio |
| --- | --- |
| TCGGGATGTG | 1.02 |
| TTAATGTC | 1.08 |
| ACCATTTTC | 0.966 |
| TCCGAGAGTG | 0.969 |
| TTGCAGGTGA | 1.7 |
| AGGCCGGATC | 1.03 |
| TCGGGATTT | 0.968 |
| AAGTCGGGGA | 1 |
| TGCGGCGCCC | 1.02 |
| ATATGTATA | 0.996 |
| CTCAATGGGG | 1.03 |
| AATTGCGCA | 1.08 |
| TATAACTTCT | 0.986 |
| GGCTGAGTCT | 1.06 |
| TAAGTGTTGT | 1.04 |
| CTAAGTTCGG | 0.981 |
| GCGACGGCCG | 1.02 |
| GTGTGCATAG | 1.01 |
| TCCCGTCGCT | 1.11 |
| GTGAGTGTGA | 1.02 |
| TGAAGTTATT | 1.05 |
| TGTAATATC | 1.15 |

| Sequence | switch fluorescence ratio |
| --- | --- |
| GCTATTGTA | 0.993 |
| TAAGCCCACT | 0.994 |
| TACCGTGTAG | 1.02 |
| CTAGTTATCG | 0.983 |
| GAGGCATTTA | 1.09 |
| GGAGGGG | 0.999 |
| TTACGCTG | 1.04 |
| TTACGTATG | 1.01 |
| GCTACCAAGT | 1.04 |
| TGGACATATA | 1.03 |
| AGGTCAGGGA | 1.04 |
| GGTCCTTGTG | 0.985 |
| TAACAAAAAA | 0.958 |
| CCCGTTGCGC | 1.1 |
| GCAAGAGGCG | 1.01 |
| AACCGGGATG | 1.05 |
| GCACGTACAA | 1.7 |
| ATGATGGGA | 1.01 |
| GGTGTTACGG | 0.994 |
